Hit rate of the full screen: of about 48,000 compounds, about 120 (0.25%) were called active. Inconclusive results (about 4%) are left out. Calls come from the whole dose curve; as a rule, active = well fitted activation curve with a large enough effect; inconclusive = small, poorly fitted or top-dose-only effect, or another doubt; inactive = no such curve, though single readings can be large or run the other way. This is one part of the list.
Assay: Primary qHTS for Identification of Small Molecule Activators of Huntingtin-Antisense Promoter Activity; note: nearly all actives have a fitted effect of over 55% in size
Conditions: HEK293 HTT-AS promoter firefly luciferase reporter, 24 h; series mostly up to 57.5 µM; activity change, positive = activation: at the top concentration
Method in brief: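 HEK293 Fluc reporter, 2,500 cells/well, 24 h pre-culture; cpds up to 57.5 uM final, 24 h 37 degrees C; Dual-Glo, 10 min RT; normalized vehicle = 0%, zero RLU = -100%.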

Activity change, positive = activation, inactive:
O=C(COc1ccccc1)N(Cc1cccnc1)c1nc2c(F)cccc2s1 0.196%
Nc1ccc(NC(=O)c2cccc(C(=O)Nc3ccc(N)cc3Cl)c2)c(Cl)c1 -24.2%
Cc1ccc(Cl)cc1N1CCN(C(=O)CCCn2c(=O)[nH]c3ccc(Br)cc3c2=O)CC1 -42.4%
CCc1ccccc1NC(=O)C1CCN(c2cnccn2)CC1 -11.2%
CC(=O)c1nnn(-c2ccc(C)cc2Cl)c1C 3.82%
O=C(CCn1cnnn1)Nc1cc(C(F)(F)F)cc(C(F)(F)F)c1 -36.5%
CC(=O)c1ccc(Nc2ccc3cc(S(=O)(=O)N4CCCC4)ccc3n2)cc1 -21.7%
CC(C)Oc1cccc(C2CC(=O)Nc3cc4c(cc32)OCO4)c1 (stereo not drawn) -40.8%
COc1cc(NC(=O)CSc2nccn2C)cc(OC)c1OC 0.839%
COc1ccc2c(c1)c1c(c(=O)n(-c3ccc(OC)c(OC)c3)c(=O)n1Cc1ccccc1F)n2C -4.38%
CCCCSCCCNC(=O)c1cn(C)c2ccc(S(=O)(=O)N3CCCCCC3)cc2c1=O 6.89% [at 11.5 µM, percent change from vehicle, -100% = no light]
O=C(NCCS(=O)(=O)N1CCN(c2ccc(F)cc2)CC1)c1cccc(C(F)(F)F)c1 1.18%
Cc1ccc(NC(=O)c2c(NC(=O)Cc3ccccc3)sc3c2CCCC3)cc1 -15.5%
CCC(=O)C1=C(c2ccc(OC)c(OC)c2)N(C(=O)CC)n2c(CC)nnc2S1 -2.12%
CCOc1ccc(CCNC(=O)CN2C(=O)COc3ccc(S(=O)(=O)N4CCCCCC4)cc32)cc1 -34.3%
CC(=O)c1cccc(NC(=O)Cn2c(=O)oc3cc(S(=O)(=O)N4CCCC4)ccc32)c1 -29%
CC(=O)Nc1ccc(NC(=O)CCSCCc2ccccn2)cc1 -5.25%
CN(C)c1ccc(-c2nnc3n(Cc4ccccc4)c(=O)c4ccccc4n23)cc1 -19.9%
c1ccc(CN(CC2=NCCN2)c2ccccc2)cc1 -10.5%
CN(C)c1ccc(CNC(=O)c2ccc(NC(=O)N3CCCCc4ccccc43)cc2)cc1 -0.522%
COc1ccc(-n2c(SCC(=O)Nc3cccc(C)c3C)nc3c([nH]c4ccccc43)c2=O)cc1 -14.5%
O=S(=O)(Nc1cc(F)ccc1F)c1ccc2[nH]c3c(c2c1)CCCCC3 -25.7%
Cc1ccc2oc(=O)c3cc(C(=O)N4CCN(c5ccccc5F)CC4)sc3c2c1 -5.72%
CC(C)(C)c1ccc(Oc2ccc(NC(=O)CCC(=O)OCC(=O)c3ccccc3)cc2)cc1 -24.5%
O=C(CCn1ccc2cc(S(=O)(=O)N3CCCC3)ccc21)NCc1cccc(Cl)c1 -13.6%
Cc1cc(C(=O)NCc2cccc(Br)c2)c2c(C)nn(-c3ccccc3)c2n1 -19.2%
Cc1ccc(NC(=O)c2ccc(CNS(=O)(=O)c3ccc4c(c3)C(C)(C)C(=O)N4C)cc2)cc1C -45.5%
CC(=O)N1c2ccc(S(=O)(=O)NCC3CCC(C(=O)Nc4ccc(C)c(C)c4)CC3)cc2CC1C (stereo not drawn) -12.4%
COc1cc(CCNC(=O)c2ccc3c(c2)c(C)c(C)n3Cc2cccc(C)c2)cc(OC)c1OC -23.8%
COCCCn1c(=N)c(C(=O)NCc2cccnc2)cc2c(=O)n3cc(C)ccc3nc21 -2.26%
COc1ccc(OC)c(Nc2ncnc3c2nc2n3CCCC2)c1 9.06%
CCOc1ccc(NC(=O)c2nc3nc(C)cc(C(F)F)n3n2)cc1 8.24%
Cc1cc(C)c2c(-n3cccc3)c(C(=O)NCc3cccc(F)c3)sc2n1 -1.9%
CCc1nnc(SCc2ccc(OC)cc2)c2cc3sc(C)cc3n12 -2.68%
COc1cc(OC)c(NC(=O)c2nn(-c3ccc(C)cc3)c(=O)c3c2c2ccccc2n3C)cc1Cl 3.81%
O=C(NCc1ccccc1Cl)c1ccc(Cn2c(SCc3ccccc3)nc3cccnc32)cc1 -1.97%
Cc1c(C)n(Cc2ccccc2)c2ccc(C(=O)OCCN(C)C)cc12 -3.25%
CCc1ccccc1NC(=O)c1ccc2c(SCC(=O)O)c3c(nc2c1)CCC3 5.03%
Cc1ccccc1Cn1c2ccccc2c2cnn(CC(=O)NCC(C)c3ccccc3)c(=O)c21 (stereo not drawn) -3.58%
CSc1ccc(CCNC(=O)C(C)n2nc(C)c3sc4ccccc4c3c2=O)cc1 (stereo not drawn) -12.1%
CCOc1ccc(C2c3c(oc4ccc(C)cc4c3=O)C(=O)N2CCCN(C)C)cc1 (stereo not drawn) 18.6%
Cc1ccc(NC(=O)Cn2c(=O)n(CCCCC(=O)NCCc3ccc(Cl)cc3)c(=O)c3ccccc32)cc1 -0.784%
COc1ccc(CCNC(=O)c2oc(=O)c3ccccc3c2-c2ccccc2)cc1OC -16.7%
COc1ccc(CNC(=O)CN2C(=O)COc3ccc(S(=O)(=O)N4CCC(C)CC4)cc32)cc1 -16.7%
COc1cc(NC(=O)CCS(=O)(=O)c2nc(-c3ccc4c(c3)OCO4)cc(C(F)(F)F)n2)cc(OC)c1OC -14.6%
COC(=O)c1sc(N2C(=O)c3oc4ccccc4c(=O)c3C2c2ccc(O)cc2)nc1C (stereo not drawn) -9.29% [at 11.5 µM, percent change from vehicle, -100% = no light]
CCc1c(C)sc2c1CCN(C(=O)Nc1cc(C)cc(C)c1)C2c1ccccc1 (stereo not drawn) -6%
COCCCNC(=O)CSc1nc2cc3c(cc2c(=O)n1CCCCCC(=O)NCc1ccc2c(c1)OCO2)OCO3 -1.9%
CCCCNC(=O)C1CCC(CNS(=O)(=O)c2ccc(C)cc2)CC1 (stereo not drawn) -6.9%
COc1ccccc1NC(=O)C1CCN(S(=O)(=O)c2ccc3[nH]c4c(c3c2)CCCCC4)CC1 -31.4%
CCN1CCN(C(c2ccc(SC)cc2)c2c(O)cc(C)n(Cc3ccco3)c2=O)CC1 (stereo not drawn) -0.785%
Cc1cc(C)c(NC(=O)CCn2c(=O)c3cccn3c3ccccc32)c(C)c1 -10.5%
Oc1ccc(-c2nc(-c3ccccc3)c(-c3ccc(Br)cc3)[nH]2)cc1 -32.3%
O=C(COC(=O)C(Cc1c[nH]c2ccccc12)NC(=O)c1ccc(Cl)cc1)c1ccc(Cl)cc1 (stereo not drawn) -9.96%
Cc1nn(-c2ccccc2)c2c1cc1c(=O)n(C)c(=O)nc-1n2-c1cccc(Cl)c1 -14.2%
COc1ccc(-c2cc(=O)c3cc(OCC(=O)OC(C)C)ccc3o2)cc1 -11.8%
CN(C)CC/C=C1/c2ccccc2COc2ccc(CC(=O)O)cc21 -3.43%
Cc1ccc(Cn2c(SCC(=O)NCc3ccccc3Cl)nc3ccsc3c2=O)cc1 -6.98%

— PubChem BioAssay AID1508624 (National Center for Advancing Translational Sciences (NCATS), 2021)
